In PubChem BioAssay (NCATS):
The inconclusive results got no clear call from the source; some entries with a clear call stand among them for comparison. Where a call stands in place of a potency, no number is given. For part of these data: Potencies of inconclusive entries are doubtful fits and often do not repeat. Activity calls are given as the source filed them. Unless noted, calls follow the shape of the dose curve; as a rule, active = well fitted curve in the direction sought with a large enough effect; inconclusive = small, poorly fitted or top-dose-only effect, or another doubt; inactive = no such curve, though single readings can be large; an effect the other way counts as inactive or inconclusive.

Key:
[1] = P-glycoprotein substrates identified in KB-8-5-11 adenocarcinoma cell line, qHTS therapeutic library screen (AID 1346987); details: activity change, negative = cytotoxicity: at 44.5 µM (top of the series); also: nearly all actives have a fitted effect of over 65% in size
How it was run: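 Human cervical adenocarcinoma KB-8-5-11 cells, selected in colchicine to over-express P-gp and assayed without it, were exposed for 72 h to titrated compounds. An ATP-based luminescent viability signal gave AC50.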

[2] = system: Zika virus NS2B-NS3 protease (unlinked complex); assay: Primary screen GU Rhodamine qHTS for Zika virus inhibitors: Unlinked NS2B-NS3 protease assay (AID 1347159); details: Recombinant ZIKV NS2B-NS3 protease, Rhodamine110 substrate fluorescence; activity change, negative = inhibition: at 107 µM (top of the series); also: nearly all actives have a fitted effect of over 60% in size
How it was run: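 Unlinked NS2B/NS3, 25 nM; Rhod110 peptide, 1.5 microM; compounds, up to 114 microM. Reaction run 15 min at RT in 10 mM Tris-HCl pH 8.0, 0.01% Tween 20; kinetic fluorescence change fitted with a 4-parameter Hill model.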

CAOV3 = assay: Primary qHTS to identify gynecologic anti-cancer compounds using libraries of approved drugs and bioactive compounds (AID 1345084); details: Gynecologic cancer cell panel viability, ATPlite luminescence, 48 h; series mostly up to 57.5 µM; also: nearly all actives have a fitted effect of over 55% in size; also: potency is read from the fitted curve at half-maximal effect
How it was run: (§1)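 Cytotoxicity screen measuring ATP content by luciferase luminescence. Each compound is applied at five concentrations for 48 h at 37 C with 5% CO2.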

PA-1 = assay: as above; details: Gynecologic cancer cell panel viability, ATPlite luminescence, 48 h; series mostly up to 57.5 µM
How it was run: as §1

[3] = target: Cytochrome P450 2D6 (Homo sapiens) (UniProt P10635); assay: Cytochrome P450 family 2 subfamily D member 6 (CYP2D6) small molecule antagonists: luciferase biochemical (cell-free) qHTS assay (AID 1645840; active = well fitted curve in the direction sought with a large enough effect in the repeat runs; inconclusive = weak or mixed curves; inactive = no such curve, though single readings can be large; an effect the other way counts as inactive or inconclusive; also: potency is read from the fitted curve at half-maximal effect; nearly all actives have a fitted effect of over 55% in size)
How it was run: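 P450-Glo CYP2D6 system: proluciferin substrate converted by enzyme to luciferin, read by luminescence proportional to activity. Enzyme-substrate mix with compound 10 min at room temperature, then NADPH regeneration 1 h before detection reagent.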

[4] = Primary fluorescence-based thiol-reactive (MSTI) qHTS assay for identification of artifact compounds. (AID 1845221);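 also: potency is read from the fitted curve at half-maximal effect; thiol-reactive compounds lower the probe fluorescence signal; nearly all actives have a fitted effect of over 65% in size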
How it was run: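 Curve-fitted percent inhibition (4-parameter Hill) derived from fluorescence, Ex 525/Em 598 nm, scaled with Acetyl-MSTI and MSTI; 1 h incubation at room temperature.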

SKOV3 = assay: Primary qHTS to identify gynecologic anti-cancer compounds using libraries of approved drugs and bioactive compounds (AID 1345084); details: Gynecologic cancer cell panel viability, ATPlite luminescence, 48 h; series mostly up to 57.5 µM; also: nearly all actives have a fitted effect of over 55% in size; also: potency is read from the fitted curve at half-maximal effect
How it was run: as §1

[5] = Primary qHTS for inhibitors of nuclear receptor binding SET domain protein 2 (NSD2) in an isogenic RCH-ACV NSD2 p.E1099K mutant (9B) (AID 1645876); details: activity change, negative = viability loss: at 44.9 µM (top of the series) unless noted; also: nearly all actives have a fitted effect of over 70% in size; also: potency is read from the fitted curve at half-maximal effect
[6] = Primary redox qHTS assay for identification of artifact compounds. (AID 1845223); also: potency is read from the fitted curve at half-maximal effect
How it was run: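 Redox-cycling detection via DTT (250 uM final) oxidation coupled to Amplex Red (25 uM)/HRP (250 mU/mL) in HBSS. 15 min preincubation plus 30 min after DTT, room temperature. Ex/Em 525/598 nm; 4-parameter Hill fit against DMSO and 10 uM DA3003.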

[7] = target: Cytochrome P450 3A4 (Homo sapiens) (UniProt P08684); assay: Cytochrome P450 family 3 subfamily A member 4 (CYP3A4) small molecule antagonists: luciferase qHTS assay (AID 1645841; active = well fitted curve in the direction sought with a large enough effect in the repeat runs; inconclusive = weak or mixed curves; inactive = no such curve, though single readings can be large; an effect the other way counts as inactive or inconclusive; also: potency is read from the fitted curve at half-maximal effect; nearly all actives have a fitted effect of over 45% in size)
How it was run: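 P450-Glo CYP3A4 enzyme with proluciferin substrate was preincubated with DMSO-dissolved compounds for 10 min at room temperature. NADPH regeneration solution started a 1 h reaction. Detection reagent stopped it, and luminescence was read after 20 min.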

[8] = qHTS of pediatric cancer cell lines to identify multiple opportunities for drug repurposing: Primary screen for BT-37 cells (AID 1347094)
How it was run: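 Primary screen of approved and investigational compounds on cells in growth media at 37 degrees C, 5% CO2. MIPE set at 11-point and NPC set at 8-point dilutions; viability scored by ATP-based luminescence at 48 hours.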

[9] = qHTS of pediatric cancer cell lines to identify multiple opportunities for drug repurposing: Primary screen for SK-N-SH cells (AID 1347098);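 also: DMSO served as neutral control and bortezomib at 2.3 µM as positive control; nearly all actives have a fitted effect of over 65% in size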
How it was run: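 Cells (500-1,000/well) rested 5 h, then received compounds for 48 h; metabolically active cells were measured by CellTiter-Glo luminescence. Final concentrations spanned up to 46 µM (MIPE, 11-point) or 0.59 nM-46 µM (NPC, 8-point) in primary screens, 11-point in follow-ups.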

[10] = qHTS of pediatric cancer cell lines to identify multiple opportunities for drug repurposing: Primary screen for Rh18 cells (AID 1347102); also: nearly all actives have a fitted effect of over 65% in size
How it was run: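 Cells (500-1,000/well) in growth media were settled 5 h at 37 degrees C, then given compounds for 48 h. Viability was read as CellTiter-Glo luminescence. Primary runs used MIPE at 11 points (0.78 nM-46 µM) and NPC at 8 points (0.59 nM-46 µM); follow-ups used 11 points.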

Furin (Homo sapiens) = Furin (Homo sapiens) (UniProt P09958); assay: Furin counterscreen qHTS for Zika virus inhibitors (AID 1347149);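 also: purified recombinant full-length human furin enzyme at 5 nM; fluorescence gain from furin cutting a BOC-RVRR-AMC peptide substrate over 15 min; top concentration of the series differs between compounds; nearly all actives have a fitted effect of over 70% in size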
How it was run: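 Counterscreen measures cleavage of 2 microM BOC-RVRR-AMC, below its ~15 microM Km, by 5 nM full-length human furin at pH 7.0 after a 15-min compound preincubation. Inhibition derives from the 15-min fluorescence increase at 37C.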

[11] = Tertiary RLuc qRT-PCR qHTS assay for Zika virus inhibitors (AID 1347169); also: top concentration of the series differs between compounds; nearly all actives have a fitted effect of over 55% in size
How it was run: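 Vero cells (1,000 per well) plated overnight at 37 degrees C, treated with compound in DMSO, then infected with recombinant ZIKV-RLuc (Cambodian) at MOI 1-2 for 48-72 hrs. Live-cell Renilla luciferase substrate added; luminescence read after 1-1.5 hrs.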

[12] = Primary qHTS for small molecule stabilizers of the endoplasmic reticulum resident proteome: Secreted ER Calcium Modulated Protein (SERCaMP) assay (AID 1508630); details: SH-SY5Y GLuc-SERCaMP (Gaussia luciferase released on ER calcium loss) secretion, thapsigargin, luminescence; activity change, negative = inhibition: at 38.4 µM (top of the series) unless noted; also: potency is read from the fitted curve at half-maximal effect
How it was run: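 The SH-SY5Y reporter protocol was run at 3 concentrations up to 38.3 uM (primary) or 11 concentrations (follow-up): 16 h compound, 100 nM thapsigargin for 4 h, then extracellular luciferase luminescence.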

[13] = target: Calcium and integrin-binding protein 1 (Homo sapiens) (UniProt Q99828); assay: Primary qHTS for Identification of Calcium Integrin Binding Protein 1 (CIB1) Competitor (AID 1508620); also: potency is read from the fitted curve at half-maximal effect
How it was run: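 Fluorescence polarization competition: CIB1-GST (1 uM final) preincubated with compound 15 min at room temperature, then FITC-labeled alphaIIb peptide (100 nM final) added for another 15 min. Polarization read at Ex 480/Em 540.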

[14] = Primary qHTS for inhibitors of nuclear receptor binding SET domain protein 2 (NSD2) in an RCH-ACV wild type WT cells (2C) (AID 1645877); details: activity change, negative = cell killing: at 44.9 µM (top of the series) unless noted; also: nearly all actives have a fitted effect of over 70% in size
[15] = system: Nanoluciferase (engineered Oplophorus gracilirostris luciferase); assay: Primary Nanoluciferase (NLuc) qHTS assay for identification of artifact compounds. (AID 1845222);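 also: NLuc secreted into diluted conditioned medium of S16 cells; potency is read from the fitted curve at half-maximal effect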
How it was run: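 Using secreted nanoluciferase in S16 culture medium (0.22 um filtered, 1:55 dilution), compounds were preincubated 15 min at RT. Signal was generated with Nano-Glo reagent (1:100) over 5 min.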
Tags tell the direction and shape of the fitted curve.

Sequence of UniProt P08684 (P08684 whole entry, looked up): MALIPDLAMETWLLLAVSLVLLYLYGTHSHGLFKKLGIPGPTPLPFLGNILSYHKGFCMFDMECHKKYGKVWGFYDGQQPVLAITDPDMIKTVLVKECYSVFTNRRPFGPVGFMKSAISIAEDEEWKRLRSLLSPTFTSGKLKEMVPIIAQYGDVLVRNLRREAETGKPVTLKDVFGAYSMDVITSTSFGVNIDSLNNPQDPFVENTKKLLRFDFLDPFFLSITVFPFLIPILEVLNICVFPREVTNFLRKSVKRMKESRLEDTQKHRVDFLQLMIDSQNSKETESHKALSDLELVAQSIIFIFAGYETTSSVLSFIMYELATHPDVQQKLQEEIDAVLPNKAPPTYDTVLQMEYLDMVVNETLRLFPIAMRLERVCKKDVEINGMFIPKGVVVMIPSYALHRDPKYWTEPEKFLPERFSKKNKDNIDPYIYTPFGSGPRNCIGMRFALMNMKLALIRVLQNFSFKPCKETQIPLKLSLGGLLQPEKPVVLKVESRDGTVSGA
Sequence of UniProt Q99828 (Q99828 whole entry, looked up): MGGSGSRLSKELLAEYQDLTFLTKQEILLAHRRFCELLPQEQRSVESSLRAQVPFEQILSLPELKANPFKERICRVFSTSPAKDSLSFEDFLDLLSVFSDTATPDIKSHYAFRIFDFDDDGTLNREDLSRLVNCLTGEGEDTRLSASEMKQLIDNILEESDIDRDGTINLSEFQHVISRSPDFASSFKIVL
Sequence of UniProt P09958 (P09958 whole entry, looked up): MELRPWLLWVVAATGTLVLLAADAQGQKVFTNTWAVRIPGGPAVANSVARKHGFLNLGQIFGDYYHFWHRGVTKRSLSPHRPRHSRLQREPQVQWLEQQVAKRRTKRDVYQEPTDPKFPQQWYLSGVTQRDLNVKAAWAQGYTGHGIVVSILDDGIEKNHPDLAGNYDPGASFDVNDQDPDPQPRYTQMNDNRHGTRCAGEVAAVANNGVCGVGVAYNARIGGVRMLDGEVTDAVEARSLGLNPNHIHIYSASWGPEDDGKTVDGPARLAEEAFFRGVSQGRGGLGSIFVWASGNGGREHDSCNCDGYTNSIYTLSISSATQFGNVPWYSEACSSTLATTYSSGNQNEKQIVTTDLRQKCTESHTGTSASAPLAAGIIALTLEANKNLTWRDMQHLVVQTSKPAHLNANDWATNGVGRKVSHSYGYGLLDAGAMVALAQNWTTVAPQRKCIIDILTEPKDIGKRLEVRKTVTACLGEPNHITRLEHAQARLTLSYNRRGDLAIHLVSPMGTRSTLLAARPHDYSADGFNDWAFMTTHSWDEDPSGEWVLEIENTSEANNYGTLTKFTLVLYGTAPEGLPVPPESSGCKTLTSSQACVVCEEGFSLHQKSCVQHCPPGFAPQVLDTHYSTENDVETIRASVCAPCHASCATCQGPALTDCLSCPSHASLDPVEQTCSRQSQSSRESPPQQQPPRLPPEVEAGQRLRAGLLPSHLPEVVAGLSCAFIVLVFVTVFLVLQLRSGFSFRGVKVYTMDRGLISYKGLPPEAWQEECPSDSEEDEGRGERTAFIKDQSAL
Sequence of UniProt P10635 (P10635 whole entry, looked up): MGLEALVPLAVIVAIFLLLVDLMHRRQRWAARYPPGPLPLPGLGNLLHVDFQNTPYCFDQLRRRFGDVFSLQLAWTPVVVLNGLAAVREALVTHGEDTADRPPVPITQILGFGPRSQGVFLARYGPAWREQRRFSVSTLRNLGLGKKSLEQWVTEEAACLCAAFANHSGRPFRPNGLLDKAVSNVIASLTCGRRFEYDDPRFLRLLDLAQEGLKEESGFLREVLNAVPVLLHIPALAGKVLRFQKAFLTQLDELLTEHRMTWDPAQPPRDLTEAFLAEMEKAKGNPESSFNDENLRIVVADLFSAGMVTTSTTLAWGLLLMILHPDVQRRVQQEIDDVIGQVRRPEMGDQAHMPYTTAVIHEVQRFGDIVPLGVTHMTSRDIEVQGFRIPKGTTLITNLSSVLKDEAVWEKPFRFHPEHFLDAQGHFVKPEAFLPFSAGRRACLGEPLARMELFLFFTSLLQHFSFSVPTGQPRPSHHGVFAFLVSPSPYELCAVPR

Q: Which results are given for `O=C(/C=C/c1ccc(O)cc1)OCC1=CC2OC(=O)C3=CO[C@@H](O[C@@H]4O[C@H](CO)[C@@H](O)[C@H](O)[C@H]4O)[C@H]1[C@@H]32` (stereo partly specified)?
A: Potency [1]: inactive; Potency [2]: inactive; Potency (CAOV3): inactive; Potency (PA-1): inactive

Q: Which Potency [1] does the source give for `Cc1cc(NC(=O)Nc2ccc(F)c(F)c2)n(-c2ccccc2)n1` here?
A: inactive

Q: And the Potency [3]?
A: inconclusive: 21.3 µM [inhibitor, single point]

Q: And the Potency [4]?
A: inconclusive: 6.7 µM [inhibitor, full curve, poor fit]

Q: And the Potency (CAOV3)?
A: inconclusive: 3.16 µM [rising, full curve]

Q: What about the Potency (SKOV3) of the same molecule?
A: inconclusive: 3.98 µM [rising, partial curve, poor fit]

Q: With `CCC12CCCN3CCc4c(n(c5ccccc45)C(O)C1)C32` (stereo unspecified) as the molecule, how does the Potency [5] read?
A: inactive

Q: And the Potency [4]?
A: inconclusive: 5.97 µM [inhibitor, partial curve]

Q: What about the Potency [6] of the same molecule?
A: inconclusive: 23.8 µM [activator, single point]

Q: What about the Potency (CAOV3) of the same molecule?
A: inactive

Q: And the Potency (SKOV3)?
A: inconclusive: 39.8 µM [cytotoxic, single point]

Q: Which Potency [7] does the source give for `CCCN1CCC[C@@H](c2cccc(S(C)(=O)=O)c2)C1` here?
A: inconclusive: 23.9 µM [falling, single point]

Q: What about the Potency (CAOV3) of the same molecule?
A: inconclusive: 3.98 µM [cytotoxic, partial curve, poor fit]

Q: And the Potency (SKOV3)?
A: inactive

Q: What does the source list for `OC[C@@]1(O)CO[C@@H](OC[C@H]2O[C@@H](Oc3c[nH]c4ccccc34)[C@H](O)[C@@H](O)[C@@H]2O)[C@@H]1O`?
A: Potency [5]: inconclusive: 1.26 µM [inhibitor, partial curve, poor fit]; Potency [4]: inconclusive: 7.33 µM [inhibitor, partial curve]; Potency (CAOV3): inactive; Potency (SKOV3): inconclusive: 17.8 µM [cytotoxic, single point]

Q: With `N[C@H](C(=O)O)c1ccc(O)cc1` as the molecule, how does the Potency [1] read?
A: inactive

Q: And the Potency [8]?
A: inactive

Q: And the Potency [9]?
A: inactive

Q: And the Potency [10]?
A: inactive

Q: And the Potency (Furin (Homo sapiens))?
A: inactive

Q: What about the Potency [11] of the same molecule?
A: inactive

Q: What about the Potency [12] of the same molecule?
A: inconclusive: 7.94 µM [inhibitor, partial curve, poor fit]

Q: What about the Potency (CAOV3) of the same molecule?
A: inactive

Q: Which Potency [13] does the source give for `O=C(/C=C/c1ccccc1)OC[C@H]1O[C@@H](OC(=O)c2cc(O)c(O)c(O)c2)[C@H](O)[C@@H](O)[C@@H]1O` here?
A: inconclusive: 8.91 µM [inhibitor, full curve, poor fit]

Q: And the Potency [5]?
A: inactive

Q: What about the Potency [14] of the same molecule?
A: inactive

Q: And the Potency [4]?
A: active: 0.327 µM

Q: What about the Potency [15] of the same molecule?
A: inconclusive: 10.4 µM [inhibitor, single point]

Q: And the Potency (CAOV3)?
A: inactive

Q: What about the Potency (SKOV3) of the same molecule?
A: inconclusive: 2.51 µM [rising, full curve, poor fit]
